Several values for one entry are separate records, joined by “and”; a condition that tells them apart may be missing. Equal values may be shown once. Where a name gives a salt, the structure may show the parent alone. ± gives the standard deviation of the averaged measurements. The list shows a part of the results. Most values come without repeats; read them as rough.
These molecules were tested on mouse mesenchymal chondrosarcoma cells (HEY1-NCOA2) (assay: XTT absorbance relative to DMSO control (cell viability) (fraction of DMSO control); higher = more viable cells / less growth inhibition).
`NC(=O)NO` [Hydroxyurea] gave an XTT absorbance of 0.997.
`NC(=O)c1ccc2nc(-c3ccc(Oc4ccc(Cl)cc4)cc3)[nH]c2c1` [Chk2 inhibitor II] was tested, and the XTT absorbance was 1.02.
In the case of `COC(=O)c1ccc(NCc2cc(O)ccc2O)cc1`, the XTT absorbance is reported as 0.889 ± 0.014.
`Cc1nc2sccn2c(=O)c1CCN1CCC(=C(c2ccccc2)c2ccc(F)cc2)CC1` gave an XTT absorbance of 0.946.
`N#CC(=C(/N)Sc1ccccc1N)/C(C#N)=C(/N)Sc1ccccc1N` was tested, and the XTT absorbance was 0.871 and 0.838.
With `CC1=C(/C=C/C(C)=C/C=C/C(C)=C/C(=O)O)C(C)(C)CCC1` [tretinoin] the XTT absorbance was 1.06.
`COC(=O)[C@H](CC(C)C)NC(=O)c1ccc(NC[C@@H](N)CS)cc1-c1ccccc1` gave an XTT absorbance of 0.91.
`O=c1c2ccccc2[nH]c(=S)n1CCN1CCC(=C(c2ccc(F)cc2)c2ccc(F)cc2)CC1` [Diacylglycerol kinase inhibitor II] gave an XTT absorbance of 0.93.
In the case of `O=c1[nH]c(NCc2ccccc2)nc2nc[nH]c12` [Benzylguanine], the XTT absorbance is reported as 0.943.
For `COc1cccc2c1C(=O)c1c(O)c3c(c(O)c1C2=O)C[C@@](O)(C(C)=O)C[C@@H]3O[C@H]1C[C@H](N)[C@H](O)[C@H](C)O1` [Daunorubicin, HCl], the XTT absorbance was 0.235.
`N#CC[C@H](C1CCCC1)n1cc(-c2ncnc3[nH]ccc23)cn1` [Ruxolitinib] was tested, and the XTT absorbance was 0.909.
Work on `C[C@@H]1C[C@H]2O[C@@H]2/C=C\C=C\C(=O)Cc2c(Cl)c(O)cc(O)c2C(=O)O1` [radicicol] yielded an XTT absorbance of 0.599.
Molecule `CC(C)c1cc(/C=C(\C#N)C(=O)NCCCc2ccccc2)cc(C(C)C)c1O` has an XTT absorbance of 0.923 ± 0.0052.
`CCN1/C(=C/C(C)=O)Sc2ccc(OC)cc21` showed an XTT absorbance of 0.917.
`CCCS(=O)(=O)Nc1ccc(F)c(C(=O)c2c[nH]c3ncc(-c4ccc(Cl)cc4)cc23)c1F` [Vemurafenib] gave an XTT absorbance of 1.02.
With `COc1cc2ncnc(Nc3ccc(F)c(Cl)c3)c2cc1OCCCN1CCOCC1` [gefitinib] the XTT absorbance was 0.857.
In the case of `CCCC[C@@H](C)/C=C(C)/C=C(\C)C(=O)NC1=C[C@@](O)(/C=C/C=C/C=C/C(=O)NC2=C(O)CCC2=O)[C@@H]2O[C@@H]2C1=O` [Manumycin A], the XTT absorbance is reported as 0.944.
With `CCCCC(=O)Oc1ccccc1C(=O)O` [Valeryl salicylate] the XTT absorbance was 0.935.
`CCCCN1C(=O)C2Cc3c([nH]c4ccccc34)C(c3cccc(O)c3)N2C1=O` (configuration not stated) showed an XTT absorbance of 0.7.
For `CN(C)CC(=O)Nc1ccc2[nH]c(=O)c3ccccc3c2c1`, the XTT absorbance was 0.92.
For `Cn1cnc2c(NCc3ccccc3)nc(NCCO)nc21` [Olomoucine], the XTT absorbance was 0.943 ± 0.066.
Molecule `O=C(c1cc(Cc2n[nH]c(=O)c3ccccc23)ccc1F)N1CCN(C(=O)C2CC2)CC1` [Olaparib] has an XTT absorbance of 1.04.
`CN(C)CC[C@H](CSc1ccccc1)Nc1ccc(S(=O)(=O)NC(=O)c2ccc(N3CCN(Cc4ccccc4-c4ccc(Cl)cc4)CC3)cc2)cc1[N+](=O)[O-]` gave an XTT absorbance of 1.01.
`CS(=O)(=O)c1ccc(C(=O)Nc2ccc(Cl)c(-c3ccccn3)c2)c(Cl)c1` [Vismodegib] was tested, and the XTT absorbance was 1.01.
For `O=c1cc(N2CCOCC2)oc2c(-c3ccccc3)cccc12`, the XTT absorbance was 0.863 and 0.767.
`C[n+]1cc2c3c(ccc2c2ccc4cc5c(cc4c21)OCO5)OCO3` [Sanguinarine] showed an XTT absorbance of 0.782.
`CN(C)CCCN1c2ccccc2Sc2ccc(Cl)cc21` [chlorpromazine hydrochloride] showed an XTT absorbance of 0.983.
Molecule `CC(Cc1ccc(O)c(O)c1)C(C)Cc1ccc(O)c(O)c1` (configuration not stated) [Nordihydroguaiaretic acid (NDGA)] has an XTT absorbance of 0.905.
`OCCn1cc(-c2cnc3nnn(Cc4ccc5ncccc5c4)c3n2)cn1` gave an XTT absorbance of 0.911.
With `CC(C)CC(NC(=O)CNC(=O)OCc1ccccc1)C(=O)NC(Cc1ccccc1)C(=O)CCl` (configuration not stated) the XTT absorbance was 0.936.
Work on `CCOC(=O)C(C)(C)Oc1ccc(Cl)cc1` [Clofibrate] yielded an XTT absorbance of 0.935.
For `COc1cc2ncnc(Nc3cccc(Cl)c3)c2cc1OC`, the XTT absorbance was 0.8207 ± 0.0069.
Molecule `Nc1ncnc2nc(-c3ccc(N4CCOCC4)nc3)cc(-c3cccc(Br)c3)c12` has an XTT absorbance of 0.971.
For `CCCCC[C@H](CC(=O)NO)C(=O)N[C@H](C(=O)N1CCC[C@H]1CO)C(C)C` [Actinonin], the XTT absorbance was 0.922.
Work on `NC1=N/C(=C2/CCNC(=O)c3[nH]ccc32)C(=O)N1` [Debromohymenialdisine (DBH)] yielded an XTT absorbance of 0.884.
In the case of `O=[N+]([O-])c1ccc(-c2nc(-c3ccc(F)cc3)c(-c3ccncc3)[nH]2)cc1`, the XTT absorbance is reported as 0.846.
In the case of `CS(=O)(=O)Nc1ccc([N+](=O)[O-])cc1OC1CCCCC1`, the XTT absorbance is reported as 0.946.
